Test results as given in PubChem BioAssay AID504466 (National Center for Advancing Translational Sciences (NCATS), 2011).
The whole screen tested about 330,000 compounds, of which about 4,200 (1.3%) were called active. This list was built around the results that the source calls inconclusive (neither active nor inactive); the mix of calls is not that of the screen. Calls follow the shape of the dose curve; as a rule, active = well fitted activation curve with a large enough effect; inconclusive = small, poorly fitted or top-dose-only effect; inactive = no such curve, though single readings can be large or run the other way. Potencies beside an inconclusive call are fits to weak or partial responses and may not hold up.

Assay: qHTS screen for small molecules that induce genotoxicity in human embryonic kidney (HEK293T) cells expressing luciferase-tagged ELG1; also: nearly all actives have a fitted effect of over 60% in size
Settings: HEK293T ELG1-luciferase reporter, luminescence, 16 h; series mostly up to 46 µM
Method in brief: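 Genotoxic stress is detected as increased luminescence from luciferase-tagged ELG1 in HEK293T cells, measured with ONE-Glo after a 16 hr treatment at 37 °C.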
Potency is read from the fitted curve at half-maximal effect; tags tell the direction and shape of the fitted curve.

Row | SMILES | Potency
1 | O=C(O)c1ccc(OCCCCCCOC2CCCCO2)cc1 (configuration not stated) | inactive
2 | CN(c1ccc(C(=O)Nc2ccc3c(c2)OCCO3)cc1)S(C)(=O)=O | inconclusive: 7.31 µM [activator, partial curve]
3 | O=C1/C(=C\Nc2ccc(OC(F)(F)F)cc2)CCN1c1ncccn1 | active: 9.2 µM
4 | O=C(/C=C/c1ccccc1)Nc1ccc(Br)cn1 | inconclusive: 18.3 µM [activator, partial curve]
5 | COc1cccc2cc(C(=O)NCC3CCCO3)c(=O)oc12 (configuration not stated) | inconclusive: 29.1 µM [activator, single point]
6 | Cc1ccccc1-c1cc2nc(C)c(C)c(=O)n2[nH]1 | inconclusive: 25.9 µM [activator, partial curve, poor fit]
7 | Cc1ccc(Oc2c(C(N)=O)cc([N+](=O)[O-])cc2[N+](=O)[O-])cc1 | inactive
8 | Cc1cc(C(=O)NCc2csc(-c3ccccc3)n2)no1 | inconclusive: 20.6 µM [activator, partial curve]
9 | CCn1c(SCC(=O)Nc2cccc(S(=O)(=O)N(C)c3ccccc3)c2)nnc1C1CC1 | inactive
10 | CCN(C(=O)C(C)OC(=O)C1C(C(=O)OC)=C(C)NC(C)=C1C(=O)OC)c1ccccc1 (configuration not stated) | inactive
11 | COc1ccc(N=Nc2ccc(O)c3ncccc23)cc1 | active: 4.61 µM
12 | COC(=O)c1c(NC(=O)CC2Sc3ccc(C(F)(F)F)cc3NC2=O)sc(C)c1C (configuration not stated) | inactive
13 | CCCC(=O)Nc1ccc(N2CCOCC2)cc1 | inactive
14 | COc1ccc(C(=O)Nc2ccc(N3CCOCC3)cc2)cc1OC | inactive
15 | O=C(CSc1ncccc1-c1nc2ccccc2[nH]1)NCc1ccco1 | inconclusive: 7.31 µM [activator, single point]
16 | O=C(CC(=O)c1ccccc1O)c1ccc(F)cc1 | inconclusive: 35.5 µM [activator, single point]
17 | Cc1cc(C(=O)NCc2ccccc2)c(=O)[nH]c1C | inconclusive: 23.1 µM [activator, single point]
18 | CC1C(=O)N2CCCc3cc(NC(=O)COc4ccc(Cl)cc4)cc1c32 (configuration not stated) | inconclusive: 29.1 µM [activator, partial curve, poor fit]
19 | CCCc1ccc(/C=C2\C(=O)c3ccccc3C(O)=C2C(=O)OCC)cc1 | inconclusive: 4.61 µM [activator, single point]
20 | Oc1ccc(C2C[C@H]3CC[C@@H]2C3)cc1O (some centres not stated) | inconclusive: 23.1 µM [activator, partial curve, poor fit]
21 | O=C(COc1ccc(Cl)cc1)c1ccc(O)cc1O | inconclusive: 13 µM [activator, partial curve, poor fit]
22 | CC1CCC(=C(C#N)c2nc(-c3cc4ccccc4oc3=O)cs2)CC1 (configuration not stated) | active: 6.51 µM
23 | CCOc1ccc(NC(=S)NC(=O)/C=C/c2ccc(C)cc2)c([N+](=O)[O-])c1 | inconclusive: 16.4 µM [activator, partial curve, poor fit]
24 | N#C/C(=C\C1CC2C=CC1C2)c1nc2ccccc2[nH]1 (configuration not stated) | inconclusive: 20.6 µM [activator, partial curve, poor fit]

Row | SMILES | Potency
25 | CCCCN(C(=O)CNC(=O)c1cccs1)C(C(=O)NC1CCCC1)c1ccncc1 (configuration not stated) | inactive
26 | Oc1ccccc1-c1nnc(-c2ccc(C(F)(F)F)cc2)o1 | inconclusive: 16.4 µM [activator, partial curve, poor fit]
27 | COC(=O)Nc1ccc(S(=O)(=O)N2CCCCCC2)cc1 | inactive
28 | Cc1occc1C(=O)NNC(=O)C1CC1 | inactive
29 | COc1ccccc1-c1cnn2c(N3CCOCC3)cc(C)nc12 | inconclusive: 18.3 µM [activator, partial curve, poor fit]
30 | CCCn1c(N)c(C(=O)CSc2n[nH]c(-c3ccc(C)cc3)n2)c(=O)[nH]c1=O | inconclusive: 25.9 µM [activator, single point]
31 | Cc1ccccc1-c1nnc(-c2ccc(Br)cc2)o1 | active: 9.2 µM
32 | Cn1cccc1-c1nc2ccc([N+](=O)[O-])cc2[nH]1 | inconclusive: 16.4 µM [activator, partial curve]
33 | COc1ccc(NC(=O)/C=C2\SC(=O)NC2=O)cc1 | inactive
34 | CN1CCN(Cc2c(C(=O)N/N=C/c3cccc(Br)c3)nnn2-c2nonc2N)CC1 | inconclusive: 29.1 µM [activator, single point]
35 | CSc1ccc2[nH]c(=O)cc(C)c2c1 | inconclusive: 23.1 µM [activator, partial curve, poor fit]
36 | COCCNC(=O)C(c1ccc(F)cc1)N(CCOC)C(=O)CCC(=O)Nc1ccccn1 (configuration not stated) | inactive
37 | CCc1ccc(C(=O)NNC(=O)CN2C(=O)NC(CC)(c3ccccc3)C2=O)cc1 (configuration not stated) | inactive
38 | CCn1c(-c2ccc(F)cc2)cnc1SCC(=O)N1CCCCC1C (configuration not stated) | active: 6.51 µM
39 | CC(=O)c1sc(NC(=O)c2cccc(C)c2)nc1C | active: 5.17 µM
40 | COc1ccccc1C(=O)Nc1cccc2cccnc12 | inactive
41 | O=C(/C=C/c1cccc(F)c1)c1ccc(N2CCOCC2)cc1 | inconclusive: 23.1 µM [activator, single point]
42 | COc1ccccc1NC(=O)Nc1nnc(C(C)C)s1 | inconclusive: 8.2 µM [activator, partial curve]
43 | Cc1ccc2nc(Nc3ccc4[nH]c(=O)[nH]c4c3)c(-n3nc(C)cc3C)nc2c1 | inconclusive: 23.1 µM [activator, partial curve]
44 | COc1ccc(CN(C)C(=O)c2ccc3c(=O)n4c(nc3c2)CCC4)cc1 | inconclusive: 14.6 µM [activator, partial curve, poor fit]
45 | COC(=O)N1C(=O)[C@](Cc2ccccc2)(c2ccccc2)N1C(=O)OC | inconclusive: 29.1 µM [activator, partial curve, poor fit]
46 | O=C(CN1C(=O)NC2(CCCCCC2)C1=O)c1ccc2c(c1)OCCO2 | active: 4.11 µM
47 | C(=N\n1cnnc1)/c1cn(-c2cccs2)nc1-c1ccccc1 | inconclusive: 29.1 µM [activator, single point]
48 | Cc1ccc(C(=O)NCCOc2cccc(C)c2)cc1 | inconclusive: 20.6 µM [activator, single point]

Row | SMILES | Potency
49 | CCCSc1nc2c(cnn2-c2ccc(C)cc2)c(=O)[nH]1 | inconclusive: 16.4 µM [activator, partial curve, poor fit]
50 | Cc1ccc(CNC(=O)c2ccc[nH]2)cc1 | inactive
51 | CCCCNC(=O)C1CCC(CNc2nc(=S)[nH]c3ccccc23)CC1 (configuration not stated) | inconclusive: 29.1 µM [activator, single point]
52 | Cc1ccc(/C=C2/NC(=O)N(c3ccccc3)C2=O)o1 | inconclusive: 16.4 µM [activator, partial curve, poor fit]
53 | COC(=O)C1=C(C)N(C)C(C)=C(C(=O)OC)C1c1ccc(C(=O)OC)cc1 | inconclusive: 20.6 µM [activator, partial curve, poor fit]
54 | COc1cc(/C=C/C(=O)NC(=O)c2ccccc2O)ccc1OC(C)=O | inconclusive: 20.6 µM [activator, partial curve, poor fit]
55 | CC1CC(C)CN(C(=O)CCc2ccccc2)C1 (configuration not stated) | inactive
56 | COc1ccc(N2CCN(C(=O)COC(=O)c3cccc(S(=O)(=O)Nc4cccc(C)c4)c3)CC2)cc1 | inconclusive: 29.1 µM [activator, partial curve, poor fit]
57 | Nc1nc(-c2ccccc2)cn1/N=C/c1ccccc1 | inconclusive: 29.1 µM [activator, single point]
58 | CC(=O)c1cc(C#N)c(SCc2ccccc2)nc1C | inconclusive: 23.1 µM [activator, single point]
59 | O=C(c1ccccc1)c1ccc(-c2ccc(O)cc2)cc1 | inconclusive: 16.4 µM [activator, partial curve, poor fit]
60 | CC(=O)Nc1ccc(CNc2ncnc3ccc(-c4c(C)noc4C)cc23)cc1 | active: 4.11 µM
61 | Cc1ccsc1/C=C(\C#N)C(=O)NC1CCS(=O)(=O)C1 (configuration not stated) | inactive
62 | COc1cc(C(=O)Nc2nnc(C)s2)cc(OC)c1OC | inconclusive: 23.1 µM [activator, partial curve, poor fit]
63 | Cn1c(-c2ccccc2)cnc1SCc1nc2ccccc2c(=O)[nH]1 | active: 2.06 µM
64 | CCCn1c(N/N=C\C=C\c2ccccc2)nc2c1c(=O)[nH]c(=O)n2C | inconclusive: 20.6 µM [activator, partial curve, poor fit]
65 | Cc1cc(Br)ccc1SCC(=O)N1CCN(S(=O)(=O)c2ccccc2)CC1 | active: 16.4 µM
66 | C=CCNC(=O)CN1N=C(c2ccc(C)cc2)CCC1=O | inactive
67 | COC(=O)c1sc(NC(=O)c2ccoc2C)nc1C | inconclusive: 20.6 µM [activator, partial curve, poor fit]
68 | Cc1cccc2cc3c(nc12)-c1ccccc1C3=O | inconclusive: 18.3 µM [activator, partial curve, poor fit]
69 | COc1ccc(OCc2cc(C(=O)N3C[C@H]4CC[C@H]3C4)no2)c(Cl)c1 | inconclusive: 10.3 µM [activator, single point]
70 | CCOc1cccc2cc(-c3csc(NC(=O)CCC(=O)NCCN4CCCCC4C)n3)c(=O)oc12 (configuration not stated) | inconclusive: 0.461 µM [activator, full curve]
71 | CN(C)c1ccc(/C=N/NC(=O)c2ccc(Cl)cc2)cc1 | inactive
72 | Cc1cccc(NC(=O)c2ccc3c(=O)n4c(nc3c2)CCCCC4)n1 | inconclusive: 0.461 µM [activator, partial curve, poor fit]
